Measurements reported in paper PMC4939794 (Biochemistry, 2015).

How the values were obtained:
[1] = biological target: HA peptide, 12-residue peptide from H5N1 influenza virus hemagglutinin (influenza A virus H5N1 …); assay: other fluorescence titration
[2] = biological target: the molecule itself; assay: SEC

Binder | Kd [1] | ratio of oligomers to monomers, with HA peptide added [2] | ratio of oligomers to monomers, without peptide [2]
LOO7-WT (leave-one-out GFP: circularly permuted OPT-GFP truncated to remove strand 7) (other) MTHHHHHHSSGKNGIKANFTVRHNVEDGSVQLADHYQQNTPIGDGPVLLPDNHYLSTQTVLSKDPN[about 20 residues skipped]GGTGGSMSKGEELFTGVVPILVELDGDVNGHKFSVRGEGEGDATIGKLTLKFICTTGKLPVPWPTLVTTLTYGVQCFSRYPDHMKRHDFFKSAMPEGYVQERTISFKDDGKYKTRAVVKFEGDTLVNRIELKGTDFKEDGNILGHKLEYNF | > 1000 µM |  | 
LOO7-HA4 (computationally designed leave-one-out GFP with 7 mutations) (designed binder) MTHHHHHHSSGKNGIKITFTVTHNVEDGSVQLADHYQQNTPIGDGPVLLPDNHHLKTTTVLSKDPN[about 20 residues skipped]GGTGGSMSKGEELFTGVVPILVELDGDVNGHKFSVRGEGEGDATIGKLTLKFICTTGKLPVPWPTLVTTLTYGVQCFSRYPDHMKRHDWFKSAMPEGYVQERTISFKDDGKYKTRAVVKFEGDTLVNRIELKGTDFKEDGNILGHKLEYNF |  | ~0.33 oligomers:monomers | ~1 oligomers:monomers
